# Experimental data taken from the supplement of paper PMC10670038.
# Structures can show the parent of a compound that is named as a salt. ± gives the standard deviation of the averaged measurements. The full ranking holds about 2,000 compounds; the median of “relative cell viability vs DMSO, compound alone” is about 1.1, and the lowest 2% start at about 0.29. Some of the results follow.
# Tested on: TE10
# Experiment: relative cell viability vs DMSO, compound alone (fraction); TE10 is an esophageal squamous carcinoma line; higher = less cytotoxic
# Conditions: 2 µM; 48 h
# Experimental: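 TE10 ESCC cells (1,000/well, 384-well plates) were treated with Selleck bioactive library compounds at 2 uM alone for 48 h. Viability was read by CellTiter-Glo and expressed relative to DMSO wells. Two technical replicates (A, B).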
row,SMILES,relative cell viability
1,COc1ccc(CNc2nc(N3CCC[C@H]3CO)ncc2C(=O)NCc2ncccn2)cc1Cl [Avanafil],0.954 ± 0.29
2,COC(=O)N[C@H](C(=O)N1CC2(CC2)C[C@H]1c1nc(-c2ccc3c(c2)C(F)(F)c2cc(-c4ccc5[nH]c([C@@H]6[C@H]7CC[C@H](C7)N6C(=O)[C@@H](NC(=O)OC)C(C)C)nc5c4)ccc2-3)c[nH]1)C(C)C [Ledipasvir (GS5885)],1.13 ± 0.14
3,FC(F)(F)Oc1ccc2nc(-c3ccc(OCCOCCOc4ccc(-c5nc6ccc(OC(F)(F)F)cc6[nH]5)nc4)cn3)[nH]c2c1,0.7346 ± 0.0035
4,Cn1cnc2c(F)c(Nc3ccc(Br)cc3Cl)c(C(=O)NOCCO)cc21 [Selumetinib (AZD6244)],0.638 ± 0.18
5,Nc1nc(N)c2nc(-c3cccc(O)c3)c(-c3cccc(O)c3)nc2n1,1.02 ± 0.074
6,C[C@H](CS)C(=O)N1CCC[C@H]1C(=O)O [Captopril],1.08 ± 0.034
7,CN(Cc1cc(Br)cc(Br)c1N)C1CCCCC1 [Bromhexine HCl],1.09 ± 0.086
8,NCCc1ccc(O)c(O)c1 [Dopamine HCl],1.06 ± 0.12
9,CC(C)=CCCC(C)(OC1OC(COC2OCC(O)C(O)C2O)C(O)C(O)C1O)C1CCC2(C)C1C(O)CC1C3(C)CCC(OC4OC(CO)C(O)C(O)C4O)C(C)(C)C3CCC12C (stereo not given) [Gynostemma Extract],1.1 ± 0.068
10,C[N+](C)(C)CC(O)CC(=O)[O-] (racemic) [DL-Carnitine HCl],0.99 ± 0.15
11,CCS(=O)(=O)N1CCN(c2ccc(Nc3ncc(C(N)=O)c(NC4CC4)n3)cc2)CC1,1.02 ± 0.02
12,Cn1cnc(=N)c2[nH]cnc21 [3-Methyladenine],1.22 ± 0.019
13,C[N+](C)(C)C[C@H](O)CC(=O)[O-] [L-carnitine],1.04 ± 0.016
14,O=C(c1ccccc1)c1ccc2nc(NC(=O)c3csc(C4CCN(c5ncnc6ccsc56)CC4)n3)[nH]c2c1,1.17 ± 0.026
15,Cn1c(N2CCCCS2(=O)=O)nc(C(=O)NCc2ccc(F)cc2)c(O)c1=O,1.157 ± 0.0084
16,COc1ccc(CCC(=O)Nc2nc3ccc(Cl)cc3s2)cc1OC,1.17 ± 0.035
17,C=C1C(=O)O[C@H]2[C@H]1CC/C(C)=C/CC[C@@]1(C)O[C@@H]21 [(-)-Parthenolide],0.964 ± 0.014
18,CCCCOc1ccc(C(=O)CCN2CCCCC2)cc1 [Dyclonine HCl],1.02 ± 0.021
19,COc1ccc(CCC(=O)c2c(O)cc(O[C@@H]3O[C@H](CO)[C@@H](O)[C@H](O)[C@H]3O[C@@H]3O[C@@H](C)[C@H](O)[C@@H](O)[C@H]3O)cc2O)cc1O [Neohesperidin dihydrochalcone (Nhdc)],1.12 ± 0.01
20,O=[N+]([O-])c1cn2c(n1)OC[C@@H](OCc1ccc(OC(F)(F)F)cc1)C2,1.228 ± 0.011
21,Cn1nnc2c(C(N)=O)ncn2c1=O [Temozolomide],1.07 ± 0.092
22,Cc1ccc(C(=O)N(CCCN)[C@@H](c2oc3cc(Cl)ccc3c(=O)c2Cc2ccccc2)C(C)C)cc1,0.766 ± 0.026
23,C=CC[N+]1([C@H]2C[C@H]3[C@@H]4CC[C@H]5C[C@H](O)[C@@H](N6CCOCC6)C[C@]5(C)[C@H]4CC[C@]3(C)[C@H]2OC(C)=O)CCCC1 [Rocuronium Bromide],1.184 ± 0.0015

row,SMILES,relative cell viability
1,Cc1ccc(C(=O)Cn2c3c(sc2=N)CCCC3)cc1 [Pifithrin-α (PFTα)],0.951 ± 0.12
2,CC(C)(C)NC(=O)[C@H]1CC[C@H]2[C@@H]3CC[C@H]4NC(=O)C=C[C@]4(C)[C@H]3CC[C@]12C [Finasteride],1.14 ± 0.041
3,C=C1CC[C@H](O)C/C1=C/C=C1\CCC[C@]2(C)[C@@H]([C@H](C)/C=C/[C@H](C)C(C)C)CC[C@@H]12 [Vitamin D2],0.982 ± 0.093
4,Nc1nc(N)c2nc(-c3ccccc3)c(N)nc2n1 [Triamterene],0.968 ± 0.026
5,CO[C@H]1C[C@@H]2CC[C@@H](C)[C@@](O)(O2)C(=O)C(=O)N2CCCC[C@H]2C(=O)O[C@H]([C@H](C)C[C@@H]2CC[C@@H](OC(=O)C(C)(CO)CO)[C@H](OC)C2)CC(=O)[C@H](C)/C=C(\C)[C@@H](O)[C@@H](OC)C(=O)[C@H](C)C[C@H](C)/C=C/C=C/C=C/1C,0.937 ± 0.045
6,CCC[C@@H]1C[C@@H](C(=O)N[C@@H]([C@H]2O[C@H](SC)[C@H](O)[C@@H](O)[C@H]2O)[C@@H](C)O)N(C)C1 [Lincomycin HCl],1.12 ± 0.073
7,N#Cc1c(Oc2ccc(F)c(NC(=O)Cc3cccc(C(F)(F)F)c3)c2)ccc2nc(NC(=O)C3CC3)sc12,0.753 ± 0.017
8,O=c1cc[nH]c(=O)[nH]1 [Uracil],1.16 ± 0.018
9,COc1ccc(-c2cc(=O)c3c(OC)c(OC)c(OC)c(OC)c3o2)cc1OC [Nobiletin],1.13 ± 0.022
10,Cc1ccc(C(=O)Nc2cccc(C(F)(F)F)c2)cc1Nc1nc(-c2cccnc2)nc2c1cnn2C,1.13 ± 0.043
11,Cc1noc(-c2ccc(CSCCC(=O)O)cc2)c1NC(=O)OC(C)c1ccccc1Cl (stereo not given),1.08 ± 0.064
12,Cc1cccc(-c2nn3c(c2-c2ccnc4ccc(C(N)=O)cc24)CCC3)n1,0.829 ± 0.024
13,CC(C)c1nc(CN(C)C(=O)N[C@@H](CCN2CCOCC2)C(=O)N[C@H](CC[C@H](Cc2ccccc2)NC(=O)OCc2cncs2)Cc2ccccc2)cs1 [Cobicistat (GS-9350)],1.11 ± 0.05
14,Cc1cc(C)nc(NS(=O)(=O)c2ccc(NC(=S)NC(=O)COc3ccc(Br)cc3Cl)cc2)n1,1.07 ± 0.023
15,O=C(Nc1cccnc1)N1CCC(Cc2cccc(Oc3ccc(C(F)(F)F)cn3)c2)CC1,1.16 ± 0.062
16,Cc1ccc(CNc2ncnc3ccc(-c4ccc(CO)o4)cc23)o1,1.08 ± 0.015
17,CN1C(C(=O)Nc2ccccn2)=C(O)c2sc(Cl)cc2S1(=O)=O [Lornoxicam],0.859 ± 0.058
18,CC12CC3CC(C)(C1)CC(N)(C3)C2 [Memantine HCl],1.1 ± 0.014
19,O=C(O)c1ccc(C=C2SC(=S)N(c3cccc(C(F)(F)F)c3)C2=O)cc1,1.04 ± 0.026
20,COc1ccc(-c2cc(=O)c3c(OC)c(OC)c(OC)c(OC)c3o2)cc1 [Tangeretin],1.16 ± 0.12
21,COc1ccc(-c2ccc3cc(C(=O)O)ccc3c2)cc1C12CC3CC(CC(C3)C1)C2 [Adapalene],1.21 ± 0.045
22,COc1cc2c(NC3CCN(CC4CCCCC4)CC3)nc(N3CCCN(C(C)C)CC3)nc2cc1OCCCN1CCCCC1,1 ± 0.13
